# Measurements reported in article PMC6919601, “Identification of Plasmodium dipeptidyl aminopeptidase allosteric inhibitors by high throughput screening” (PLoS ONE, 2019).
# The campaign covered roughly 110,000 compounds. About 230 (0.21%) showed an effect of 50% or more. This is one part of the list.
# Molecular target: DPAP1 (Plasmodium falciparum, UniProt Q8IIJ9)
# Experiment: primary screen, percent inhibition; read by cleavage of a fluorogenic dipeptide substrate; higher = more effect of the substance
# Set-up: species or system P. falciparum D10 trophozoite lysates; single well
# 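Further: 30 min substrate incubation versus DMSO and 10 µM JCP410 controls.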
# DPAP1, sequence (Q8IIJ9 whole entry, looked up): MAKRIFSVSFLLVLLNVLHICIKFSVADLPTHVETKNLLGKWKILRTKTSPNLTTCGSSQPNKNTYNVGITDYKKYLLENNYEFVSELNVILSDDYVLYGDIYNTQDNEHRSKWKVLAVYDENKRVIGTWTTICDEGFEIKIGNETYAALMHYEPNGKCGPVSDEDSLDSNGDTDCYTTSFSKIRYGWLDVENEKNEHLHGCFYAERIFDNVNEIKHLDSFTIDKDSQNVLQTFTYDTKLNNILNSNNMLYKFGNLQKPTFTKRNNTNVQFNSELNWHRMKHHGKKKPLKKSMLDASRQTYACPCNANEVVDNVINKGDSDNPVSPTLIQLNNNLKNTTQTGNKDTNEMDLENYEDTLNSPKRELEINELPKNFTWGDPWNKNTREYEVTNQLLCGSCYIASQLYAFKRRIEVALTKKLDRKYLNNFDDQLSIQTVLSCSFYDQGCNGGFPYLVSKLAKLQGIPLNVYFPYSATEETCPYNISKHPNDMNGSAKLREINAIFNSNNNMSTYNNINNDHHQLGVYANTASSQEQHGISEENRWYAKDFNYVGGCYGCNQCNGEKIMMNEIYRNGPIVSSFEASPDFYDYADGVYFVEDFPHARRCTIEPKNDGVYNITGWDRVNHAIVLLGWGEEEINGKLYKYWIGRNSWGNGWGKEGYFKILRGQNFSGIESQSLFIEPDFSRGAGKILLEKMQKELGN
row,Structure (SMILES),% Inhibition @ 10 uM [%]
1,CN1CCN(C2=C(Cl)C(=O)N(c3cccc(Cl)c3)C2=O)CC1,-2.53
2,CCn1cc(CCCC(=O)NCCCN2C(C)CCCC2C)c2ccccc21 (stereo not shown),6.84
3,Cc1ccc(NC(=O)C2CCCN(S(=O)(=O)c3c(C)noc3C)C2)nc1 (stereo not shown),2.39
4,COc1ccc(OC)c(-c2cc(C(=O)Nc3ccccc3C(N)=O)c3ccccc3n2)c1,2.92
5,Cc1ccc(C)c(S(=O)(=O)NCC(=O)Nc2ccccc2F)c1,-3.83
6,CN(C)c1ccc(/C=C/CN2CCCCCC2)cc1,0.0792
7,CC(=O)c1cccc(-n2nnnc2S(=O)(=O)Cc2cccc(Cl)c2)c1,-0.0678
8,CCN(Cc1ccccc1)C(=O)[C@H]1[C@@H]2C[C@@H]3[C@H]1C(=O)O[C@@H]3C2,-2.92
9,CC(C)Oc1ccc(C(=O)Nc2cccnc2Cl)cc1,-3.34
10,COc1ccc(S(=O)(=O)N(C)CC(=O)NCc2ccncc2)cc1,-9.29
11,O=c1oc2ccc([N+](=O)[O-])cc2cc1-c1nc2ccccc2o1,2.6
12,NCCc1c(C(=O)O)[nH]c2ccc(OCc3ccccc3)cc12,6.24
13,N#CC1=C(N)Oc2c(c(C(F)(F)F)nn2-c2ccccc2)C1c1c(F)cccc1Cl (stereo not shown),-0.436
14,Cc1cc(NS(=O)(=O)c2ccc(NC(=O)COc3ccccc3C(C)(C)C)cc2)no1,9.33
15,Cc1cc(C(F)F)n2nc(C(=O)Nc3cnn(Cc4ccc(F)cc4)c3)nc2n1,0.778
16,COC(=O)c1sc2nc(C)c(C)c(C)c2c1N,-3.77
17,CCc1ccc(C2c3c(-c4c(C)cc(C)cc4O)n[nH]c3C(=O)N2CCO)cc1 (stereo not shown),1.67
18,O=C(Nc1ccc(S(=O)(=O)N2CCCCCC2)cc1)C1CCCCC1,4.57
19,Cc1cc(C(F)(F)F)c(C#N)c(S)n1,82.2
20,CCCS(=O)(=O)N1CCC(C(=O)Nc2ccccc2F)CC1,-1.65
21,Cc1ccccc1OCCCN1CCCC1,3.48
22,CCn1c2ccccc2c2cc(CN3CCOCC3)ccc21,-3.15
23,O=C(NCc1ccco1)c1cccnc1SCc1ccccc1Cl,11.4
24,Cc1ccc(Cl)c(OCCN2CCNCC2)c1,6.45
25,COc1cccc(C2CC(C(F)(F)F)n3ncc(C(=O)Nc4cccnc4)c3N2)c1 (stereo not shown),3.35

row,Structure (SMILES),% Inhibition @ 10 uM [%]
1,CCOC(=O)c1[nH]c(C)c(C(=O)NC(C)(C)C)c1C,0.0579
2,COCCN(Cc1ccco1)C(=O)C1CCN(c2nc(-c3ccc(OC)cc3)no2)CC1,7.86
3,COCCNC(=O)c1cc2nc(-c3ccccc3)cc(-c3ccccc3)n2n1,1.25
4,Cc1ccc2c(=O)cc(C(=O)N(Cc3ccccc3)C3CCS(=O)(=O)C3)oc2c1 (stereo not shown),-5.08
5,CCCCCCNC(=O)c1ccc(OC)cc1,-2.66
6,Cc1cccc(OCCCn2ccnc2)c1C,2.76
7,COc1ccc2[nH]c3c(c2c1)CCNC3c1ccccc1Cl (stereo not shown),2.24
8,COc1ccc(NC(=O)c2ccccc2N(C)S(=O)(=O)c2ccccc2)cc1,-1.6
9,Cc1oc(C)c(-c2c(C)oc(C)c2C(=O)O)c1C(=O)O,-7.27
10,CCN(CC)CC(=O)c1c[nH]c2ccccc12,4.55
11,C=CCn1c(SCc2nc3ccccc3[nH]2)nnc1-c1ccccc1,2.94
12,CC(=O)Nc1ccc(C(=O)Nc2ccc(OCC(=O)O)cc2)cc1,5.63
13,CC(C)C[C@H](NC(=O)C1CCC(C(C)(C)C)CC1)C(=O)NCC#N (stereo partly shown),0.174
14,CC1=C(C(=O)OC2CCCC2)C(c2ccccc2F)NC(=O)N1 (stereo not shown),0.162
15,CCN(Cc1ccccc1)C(=O)c1ccc(CS(=O)c2ccc(OC)cc2)o1 (stereo not shown),-3.32
16,Cc1nn(C(C)C(=O)N2CCN(Cc3ccccc3)CC2)c(=O)c2c1sc1ccccc12 (stereo not shown),-0.856
17,Cc1ccc(/C=c2\sc3nnc(-c4ccc(Cl)cc4)n3c2=O)o1,-3.64
18,CCCC1=C(C(=O)OCC)C(c2ccc(F)c(Br)c2)C(C#N)=C(N)O1 (stereo not shown),-5.65
19,CC1=NNC(=O)CC1,-3.67
20,Cc1sc2nc(-c3ccc(C(C)(C)C)cc3)oc(=O)c2c1C,-10.1
21,CCCc1nc2nc(C)c(NS(=O)(=O)Cc3ccccc3)c(O)n2n1,4.47
22,N#C/C(=C\c1ccc(O)cc1)c1nc(C2CC2)cs1,-4.08
23,Cc1ccccc1Cn1c(CN2CCCCC2C)nc2c1c(=O)n(C)c(=O)n2C (stereo not shown),1.23
24,O=C(O)CCCC(=O)Nc1cccc(Oc2ccc3c(c2)C(=O)N(c2ccccc2)C3=O)c1,3.89
25,CCCc1nc2oc3c(-c4ccccc4)c(C(=O)O)c(C)nc3c2c2c1COC(C)(C)C2,0.685

row,Structure (SMILES),% Inhibition @ 10 uM [%]
1,CN(C)c1ccc(-c2nc3cc(N)ccc3o2)cc1,4.36
2,Cc1ccc(NS(=O)(=O)c2ccc(NC(=O)CN3C(=O)c4cccc5cccc3c45)cc2)cc1,3.84
3,COc1cc(NC(=O)C(C)Oc2ccccc2)cc(OC)c1 (stereo not shown),-2.8
4,CC(=O)CSc1nc2ccccc2o1,5.29
5,COc1cccc(/C=C2/SC(=N)N(c3nonc3N)C2=O)c1,1.13
6,Cc1cc(OCc2noc(-c3cccnc3)n2)ccc1Cl,2.41
7,CNC(=O)/C(=C\c1ccccc1)NC(=O)c1ccc(Br)cc1,-4.48
8,CCOC(=O)C1=C(C)OC(N)=C(C#N)C1c1ccc(OC)c(C)c1 (stereo not shown),-3.13
9,COc1ccccc1CNC(=O)Cc1c(C)c2cc3c(C)coc3cc2oc1=O,2.54
10,CC(C)C[C@H](NC(=O)c1cccc(-c2ncc[nH]2)c1)C(=O)NCC#N,-5.64
11,Cc1ccc2nc(NC(=O)CC(C)C)sc2c1,-5.13
12,Cc1sc2ncnc(N3CCCCCC3)c2c1C,-4.21
13,CC(NC(=O)/C(=C\c1ccc2c(c1)OCO2)NC(=O)c1ccccc1)C(=O)O (stereo not shown),2.38
14,O=C(O)c1ccc(CSc2cc(Cl)ccc2Cl)cc1,10.6
15,CCOc1ccc(NC(=O)CN(c2cccc(OC)c2)S(C)(=O)=O)cc1,0.324
16,OC1CCCN(Cc2ccc(F)cc2F)C1 (stereo not shown),-0.828
17,COCCN1C(=O)c2ccccc2C(C(=O)NCCN(C)C)C1c1cccs1 (stereo not shown),-6.05
18,CC(NC(=O)c1ccc(Cl)cc1Cl)C1COc2ccccc2O1 (stereo not shown),0.131
19,N#CC1=C(N)Oc2[nH]nc(-c3cccnc3)c2C1c1cc2c(cc1Cl)OCO2 (stereo not shown),-2.78
20,O=S1(=O)CC=C(CSc2nc3ccccc3[nH]2)C1,-2.62
21,CCCc1c(C)nc2c(C(=O)NCc3ccccc3Cl)cnn2c1O,-0.406
22,COCCO/C(O)=C1/C(C)=NC2=C(C(=O)CC(c3ccc(OC)cc3)C2)C1c1ccc(C)cc1 (stereo not shown),-0.053
23,CCSc1ncc(Cl)c(C(=O)Nc2sc3c(c2C(=O)OC)CCC3)n1,-6.74
24,CCN(CC)CCCOc1ccc(C)c(C)c1,-6.44
25,COc1ccccc1-n1c(C)cc(/C=C2\C(=N)N3N=C(N4CCCC4)SC3=NC2=O)c1C,6.38

row,Structure (SMILES),% Inhibition @ 10 uM [%]
1,CCOc1cc(S(=O)(=O)Nc2ccc(Cl)cn2)ccc1Cl,-1.17
2,Cc1cc(C)cc(C(=O)Nc2cnn(Cc3ccccc3)c2)c1,-8.86
3,O=S(=O)(c1ccc(-c2ccc(O)nn2)s1)N1CCC(CN2CCc3ccccc3C2)CC1,-0.303
4,Cc1ccc(CCNC(=O)C2CCN(S(C)(=O)=O)CC2)cc1,2.05
5,CCC1CCCCN1C(=O)C1=CC(c2ccc(C)cc2)=NS(=O)(=O)N1C (stereo not shown),-1.06
6,COc1ccc(C2CC(c3ccc(Cl)cc3Cl)=NN2C(C)=O)cc1 (stereo not shown),0.235
7,COC(=O)C1=C(C)N(CC(C)C)C(=O)/C1=C\c1cc(OC)c(OC)c(OC)c1,-0.436
8,COC(=O)c1cc(S(=O)(=O)N(C)Cc2ccccc2)cn1C,-2.84
9,CCN1CCN(C(=O)c2cnn(-c3ccc(C)cc3C)c2C2CCN(C(=O)OC(C)(C)C)CC2)CC1,1.92
10,CC1CCN(c2ncnc3c2nc2n3CCCCC2)CC1,7.22
11,COCc1cc(C)nc(SCC(=O)Nc2ccc(Br)cc2C)c1C#N,-1.84
12,OC(COc1ccccc1)CN1CCN(c2ccccc2)CC1 (stereo not shown),0.389
13,Cc1nn(C)c(C)c1S(=O)(=O)N1CCC(C(=O)NC2CCCCCC2)CC1,0.708
14,CC(CCc1ccccc1)/N=C/c1c(O)[nH]c2ccccc12 (stereo not shown),1.52
15,COc1ccc(OC)c2sc(N(CCN(C)C)C(=O)c3cccs3)nc12,4.67
16,C=CCN1C(=O)NC(=O)C(Cc2ccc(OC)c(OC)c2)C1=O (stereo not shown),-6.02
17,CC(CNC(=O)CCc1nnc2n(Cc3ccccc3)c(=O)c3ccccc3n12)c1ccccc1 (stereo not shown),-4.21
18,Cc1cccc(C(=O)Nc2sc3c(c2C(=O)N2CCOCC2)CCCC3)c1,-2.03
19,CC[C@H](NC(=O)[C@H](Cc1c(F)cccc1F)NC(=O)c1ccc(-c2ccccc2Cl)nc1)C(O)c1nc2ccccc2o1 (stereo partly shown),-7.2
20,CSc1sc(SC)c(CO)c1CO,-0.0372
21,CC(C)(C)NC(=O)/C(=C/c1ccc(Br)cc1)NC(=O)c1ccccc1,-4.76
22,COc1ccc(-c2csc(NC(=O)/C=C/C(=O)O)n2)cc1,-1.1
23,CCCCNc1nc2c(c(=O)n(C)c(=O)n2C)n1Cc1ccc(Cl)cc1Cl,-3.98
24,O=C(c1ccc(CN2CC(=O)N3CCCCC3C2=O)cc1)N1CCCCCC1 (stereo not shown),-3.6
25,CCCOc1ccc(C2c3c(oc4ccccc4c3=O)C(=O)N2c2nnc(C)s2)cc1 (stereo not shown),2.16
